Assay results taken from the antibiotic and cytotoxicity screens of Wong et al. (2023).
The other results are listed elsewhere or left out.

Experiments:
[1] = tested on: HSkMC (human skeletal muscle cells); assay: cytotoxicity call (relative viability < 0.9); details: 10 µM
[2] = tested on: HepG2; assay: cytotoxicity call (relative viability < 0.9); details: 10 µM
[3] = tested on: S. aureus RN4220; assay: growth inhibition call (relative growth <= 0.2); details: 50 µM

## COc1ccc(C#Cc2ccc3c(c2)O[C@H](CN(C)C(C)=O)[C@H](C)CN([C@H](C)CO)S3(=O)=O)cc1
[1]
  cytotoxicity call: inactive
[2]
  cytotoxicity call: inactive
[3]
  growth inhibition call: inactive

## Cc1noc(C)c1NC(=O)N(C)C[C@H]1OCCCC[C@@H](C)Oc2ccc(NC(=O)C3CCCCC3)cc2C(=O)N([C@H](C)CO)C[C@@H]1C
[1]
  cytotoxicity call: inactive
[2]
  cytotoxicity call: inactive
[3]
  growth inhibition call: inactive

## COc1ccc(NC(=O)Nc2cccc3c2O[C@@H](CN(C)Cc2ccc(C(=O)Nc4ccccc4N)cc2)[C@H](C)CN([C@@H](C)CO)C3=O)cc1
[1]
  cytotoxicity call: inactive
[2]
  cytotoxicity call: inactive
[3]
  growth inhibition call: inactive

## COCC#Cc1ccc2c(c1)O[C@@H](CN(C)C(=O)C1CCOCC1)[C@H](C)CN([C@H](C)CO)S2(=O)=O
[1]
  cytotoxicity call: inactive
[2]
  cytotoxicity call: inactive
[3]
  growth inhibition call: inactive

## CC(C)(CO)NC(=S)NC[C@H]1CCCO1
[1]
  cytotoxicity call: inactive
[2]
  cytotoxicity call: inactive
[3]
  growth inhibition call: inactive

## O=C(NCC(O)CO)c1c(I)c(C(=O)NCC(O)CO)c(I)c(N(CCO)C(=O)CO)c1I (stereo not given)
[1]
  cytotoxicity call: inactive
[2]
  cytotoxicity call: active
[3]
  growth inhibition call: inactive

## CC(C)NC(=O)Nc1ccc2c(c1)C(=O)N([C@H](C)CO)C[C@@H](C)[C@@H](CN(C)C(=O)Nc1ccc3c(c1)OCO3)O2
[1]
  cytotoxicity call: inactive
[2]
  cytotoxicity call: inactive
[3]
  growth inhibition call: inactive

## Cc1noc(C)c1NC(=O)N(C)C[C@@H]1Oc2ncc(C#CCN(C)C)cc2C(=O)N([C@H](C)CO)C[C@@H]1C
[1]
  cytotoxicity call: inactive
[2]
  cytotoxicity call: inactive
[3]
  growth inhibition call: inactive

## COc1ccc(S(=O)(=O)N(C)C[C@@H]2Oc3ccc(NS(=O)(=O)c4ccc(F)cc4)cc3C(=O)N([C@@H](C)CO)C[C@@H]2C)cc1
[1]
  cytotoxicity call: inactive
[2]
  cytotoxicity call: inactive
[3]
  growth inhibition call: inactive

## C[C@H](CO)N1C[C@H](C)[C@@H](CN(C)S(=O)(=O)c2cn(C)cn2)Oc2c(NS(=O)(=O)c3cccs3)cccc2C1=O
[1]
  cytotoxicity call: inactive
[2]
  cytotoxicity call: active
[3]
  growth inhibition call: inactive

## Cc1noc(C)c1S(=O)(=O)N(C)C[C@@H]1Oc2ccc(NC(=O)C3CCCCC3)cc2CC(=O)N([C@@H](C)CO)C[C@@H]1C
[1]
  cytotoxicity call: inactive
[2]
  cytotoxicity call: inactive
[3]
  growth inhibition call: inactive

## C[C@@H]1CCCCO[C@@H](CN(C)C(=O)c2ccccc2)[C@H](C)CN([C@H](C)CO)C(=O)c2cc(NC(=O)C3CCCCC3)ccc2O1
[1]
  cytotoxicity call: inactive
[2]
  cytotoxicity call: inactive
[3]
  growth inhibition call: inactive

## C[C@@H]1CN([C@H](C)CO)C(=O)Cc2cc(NC(=O)CCN3CCOCC3)ccc2O[C@@H]1CN(C)CC1CCCCC1
[1]
  cytotoxicity call: inactive
[2]
  cytotoxicity call: inactive
[3]
  growth inhibition call: inactive

## CNC[C@H]1OCCCC[C@H](C)Oc2ccc(NC(=O)Nc3ccc(C(F)(F)F)cc3)cc2C(=O)N([C@H](C)CO)C[C@@H]1C
[1]
  cytotoxicity call: inactive
[2]
  cytotoxicity call: inactive
[3]
  growth inhibition call: inactive

## COc1ccc(S(=O)(=O)Nc2ccc3c(c2)C(=O)N([C@H](C)CO)C[C@H](C)[C@H](CN(C)S(C)(=O)=O)OCCCC[C@H](C)O3)cc1
[1]
  cytotoxicity call: inactive
[2]
  cytotoxicity call: inactive
[3]
  growth inhibition call: inactive

## CO[C@@H]1CN(C)C(=O)c2ccc(NC(=O)C3CC3)cc2OC[C@@H](C)N(C(=O)CN2CCOCC2)C[C@@H]1C
[1]
  cytotoxicity call: inactive
[2]
  cytotoxicity call: inactive
[3]
  growth inhibition call: inactive

## C[C@H]1CN([C@@H](C)CO)S(=O)(=O)c2ccc(Br)cc2O[C@@H]1CN(C)C(=O)c1cnccn1
[1]
  cytotoxicity call: inactive
[2]
  cytotoxicity call: inactive
[3]
  growth inhibition call: inactive

## C[C@@H]1CCCCO[C@H](CN(C)Cc2ccccc2)[C@@H](C)CN([C@@H](C)CO)C(=O)c2cc(NC(=O)Nc3ccc4c(c3)OCO4)ccc2O1
[1]
  cytotoxicity call: inactive
[2]
  cytotoxicity call: inactive
[3]
  growth inhibition call: inactive

## NCCS
[1]
  cytotoxicity call: inactive
[2]
  cytotoxicity call: inactive
[3]
  growth inhibition call: inactive

## C[C@@H]1CN([C@@H](C)CO)C(=O)Cc2cc(NC(=O)CCCCCC(=O)Nc3ccccc3N)ccc2O[C@H]1CN(C)Cc1ccc(-c2ccccc2)cc1
[1]
  cytotoxicity call: inactive
[2]
  cytotoxicity call: inactive
[3]
  growth inhibition call: inactive

## NCc1cccc2c1OCCCO2
[1]
  cytotoxicity call: inactive
[2]
  cytotoxicity call: inactive
[3]
  growth inhibition call: inactive

## C[C@H](CO)N1C[C@H](C)[C@H](CN(C)CC2CCCCC2)OCCCC[C@H](C)Oc2ccc(NS(=O)(=O)c3ccc(Cl)cc3)cc2C1=O
[1]
  cytotoxicity call: inactive
[2]
  cytotoxicity call: active
[3]
  growth inhibition call: inactive

## COCC(=O)N(C)C[C@@H]1Oc2cc(-c3ccc(OC)cc3)ccc2S(=O)(=O)N([C@@H](C)CO)C[C@H]1C
[1]
  cytotoxicity call: inactive
[2]
  cytotoxicity call: inactive
[3]
  growth inhibition call: inactive

## C[C@@H]1CN([C@@H](C)CO)C(=O)c2cc(NC(=O)NC3CCCCC3)ccc2O[C@@H](C)CCCCO[C@H]1CN(C)C(=O)c1ccncc1
[1]
  cytotoxicity call: inactive
[2]
  cytotoxicity call: inactive
[3]
  growth inhibition call: inactive

## C[C@H](CO)N1C[C@H](C)[C@H](CN(C)S(=O)(=O)c2ccc(C#N)cc2)Oc2ncc(-c3cccc(F)c3)cc2C1=O
[1]
  cytotoxicity call: inactive
[2]
  cytotoxicity call: inactive
[3]
  growth inhibition call: inactive

## C[C@@H]1CN([C@H](C)CO)C(=O)c2cccc(NC(=O)CCCCCC(=O)Nc3ccccc3N)c2O[C@H]1CN(C)C(=O)Nc1ccc(F)cc1
[1]
  cytotoxicity call: inactive
[2]
  cytotoxicity call: inactive
[3]
  growth inhibition call: inactive

## C[C@H](CO)N1C[C@H](C)[C@H](CN(C)S(=O)(=O)c2ccc(Cl)cc2)OCCCC[C@H](C)Oc2ccc(NC(=O)c3ccccc3)cc2C1=O
[1]
  cytotoxicity call: inactive
[2]
  cytotoxicity call: inactive
[3]
  growth inhibition call: inactive

## CS(=O)(=O)CC(=O)N1C[C@@H]2CN(Cc3ccoc3)CCO[C@@H]2C1
[1]
  cytotoxicity call: inactive
[2]
  cytotoxicity call: inactive
[3]
  growth inhibition call: inactive

## C[C@H]1CN([C@@H](C)CO)C(=O)c2cccc(N(C)C)c2O[C@@H]1CN(C)S(C)(=O)=O
[1]
  cytotoxicity call: inactive
[2]
  cytotoxicity call: inactive
[3]
  growth inhibition call: inactive

## NCc1ccccc1N1CCC(CO)CC1
[1]
  cytotoxicity call: inactive
[2]
  cytotoxicity call: inactive
[3]
  growth inhibition call: inactive
